Assay results: the supplement of paper PMC10126150
Sequences with one replicate were seen in a single cluster, so their values are uncertain.

Tested on: ATP
Test: switch fluorescence ratio, 500 uM ATP over buffer (Cy3 cluster intensity, sum of 5 cycles each) (fold (ratio)); higher = stronger signal-on switching upon ATP binding; sequences stand for … in TCGTCGGCAGCGTCAGATGTGTATAAGAGACAGTTTTTTTTTTTTTTTTTTTTTTTTT…TC
Settings: aptamer strand: ATP DNA aptamer (quencher-CACCTGGGGGAGTATTGCGGAGGAAGG + anchor), 100 nM annealed; ATP concentration: 500 uM; one replicate
Outline: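 Clusters with intensities outside 100-1000 RFU were excluded. The remaining Cy3-labelled switching-strand clusters on a modified Illumina MiSeq flow-cell had been annealed to 100 nM quencher-labelled ATP aptamer and imaged in selection buffer, then after 15 min with 500 uM ATP at 22 °C, for five cycles separated by NaOH stripping and re-annealing. The fluorescence ratio, averaged per switch-domain sequence, is each cluster's summed target-cycle Cy3 intensity over its summed buffer-cycle Cy3 intensity.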
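Also: ATP exposure 15 min at 22 °C before imaging.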

Row | Sequence | switch fluorescence ratio
1 | TTCAGGAGG | 1
2 | CCAAAGTAAA | 1.16
3 | TAATCGCTTG | 1.01
4 | CGACCCGTTA | 2.03
5 | CTTGACTTTA | 1.06
6 | AAGTAACATT | 1.05
7 | ATGCAACGGG | 1.03
8 | GAAAGTATG | 1.03
9 | GTATGGACTC | 0.976
10 | AATTGGTCAG | 0.968
11 | TTGGCCGCCG | 0.927
12 | CTCAGTACCT | 1.21
13 | CTACCGGCTT | 1.07
14 | TGACCATCCA | 0.998
15 | CTGGATCCAC | 1.03
16 | ATAACGACTT | 1.03
17 | AGGGAGGTAT | 0.941
18 | AGCCTGACCC | 1.24
19 | AAATGATCTG | 0.902
20 | TGCTATTTGT | 1.01
21 | ACGGCGCCTC | 1.02
22 | TCCATTCTGA | 0.985
23 | TCCTGTGAGT | 0.971

Row | Sequence | switch fluorescence ratio
24 | TTTAAACACG | 1.03
25 | ACCCGCGGAG | 1.02
26 | ACAATCTGCT | 1.03
27 | TCTATTATTA | 0.987
28 | CCAGTTTACA | 0.978
29 | GCAGGTATCC | 1.05
30 | GAAAGCTTGT | 1
31 | ATTTTAGATA | 0.974
32 | TGAAGGTCCT | 1.04
33 | GGCGGGGTTA | 1.03
34 | TGAGAACAAG | 0.986
35 | TGAGAGATTA | 0.978
36 | ACATATTAGA | 1.06
37 | GGTCCCCCGT | 1.02
38 | CGGTTCCTAG | 0.969
39 | TGGGGAGCAG | 0.994
40 | AAATCGTCCC | 1.11
41 | CGCGGCGGCA | 1.01
42 | AACCTGGCCG | 1.13
43 | GTTAGTCCTG | 1.01
44 | AATCCCCATT | 0.989
45 | CAGGGGTCAA | 1.21
46 | CTGATAGAGC | 0.992

Row | Sequence | switch fluorescence ratio
47 | TAGCTAGTAG | 1.01
48 | GTTGTCCGGC | 0.954
49 | GCTAGAGTCG | 1
50 | CAATAGTCTG | 1.06
51 | TGCTTAGGCT | 0.978
52 | TTACCTCCAT | 1.07
53 | TTTCGTCGTG | 1.03
54 | CGAGCGTCTT | 1.06
55 | AGTTAATCGA | 1
56 | CCGGATTGGG | 1.02
57 | TGCTCAGAGT | 0.995
58 | GATCCGAATA | 1.2
59 | GCAGTGAATG | 0.995
60 | TGACCTTGTC | 0.992
61 | ATGTATGGG | 1.01
62 | CGTCGGTTAT | 1.02
63 | GGCCAAGTAT | 1.03
64 | AAATTGCGT | 0.993
65 | AAAGATGGGC | 0.975
66 | ATCTTTGATA | 1.06
67 | AATAGTGGGA | 0.976
68 | CGCTCGGGCG | 1.02
69 | TGCGTGCA | 1.06

Row | Sequence | switch fluorescence ratio
70 | GCGGTACCTC | 1.11
71 | CGTCAGAGGA | 0.998
72 | TAAGACGTC | 0.99
73 | GTATTTGTAT | 1.01
74 | AACAGAGGCG | 1.04
75 | TTTTTCTCT | 0.997
76 | GTGGCGAGCG | 1.01
77 | CCCCGGTTG | 2.67
78 | AAATGCGA | 1.01
79 | GTCCGGAGGG | 0.99
80 | TCAGTGTCCC | 0.956
81 | GTGAGCGAAG | 1.01
82 | GAGTAGTGGC | 1.02
83 | TTAAGGTCCC | 1.05
84 | GTGGTTAATT | 0.972
85 | TGGAATCTT | 1
86 | ACACGCTCAT | 1.05
87 | TGAGGCGTGT | 1.05
88 | TCTTGCATGC | 1.06
89 | TGGTGTTACC | 1.04
90 | GCCATCTAGT | 0.976
91 | GCAAGACTGT | 2.74
92 | CCTAGGATGA | 1.02

Row | Sequence | switch fluorescence ratio
93 | AGGCGATTCG | 0.972
94 | TTCAATGGC | 0.903
95 | TTGGGGTCAT | 1.02
96 | TAAGGGAGAG | 1.01
97 | GCGCTTATCG | 1.02
98 | CGAACTATGC | 1.46
99 | GCTAATGTCT | 1.02
100 | ATTTTGTATC | 1.01
101 | TCTCGCTCTA | 1.12
102 | GGGTCTCCGA | 1
103 | GGAATGACAG | 1.01
104 | CGGTAATCTG | 0.966
105 | TTTATATCCG | 0.971
106 | ATTGCCATAA | 0.984
107 | CCAAATGATG | 0.974
108 | CGTTTTGGAC | 1
109 | TATTGTAGAT | 1.03
110 | AGGTGCTACT | 1.03
111 | GCAAGTAGAT | 0.986
112 | TTCAATCAGT | 0.994
113 | GACTCAAATG | 0.989
114 | TTCTAGCTCT | 1.07
115 | CGTTGGTTTC | 0.966

Row | Sequence | switch fluorescence ratio
116 | AAAAAGGGA | 0.972
117 | AAGTTAAGTA | 1.05
118 | AAATTTTCCG | 1.04
119 | CTAGTATCTG | 0.958
120 | CGTGTGGTTA | 1.04
121 | CCTGGTCCTG | 0.986
122 | GAGGAATAGC | 1.05
123 | CGTGAGAGTA | 1.01
124 | AGGATTCGTG | 0.982
125 | GACACGGACA | 1.44
126 | CCCTGGTGA | 1.04
127 | ATATGGGTTG | 1.03
128 | ACTAATACCC | 1.12
129 | CGAACGGGCT | 1.1
130 | TCGACAATGT | 1.07
131 | GGCGGCACTG | 1.01
132 | TGTGTGCTCG | 0.995
133 | CCCGGTAAA | 1
134 | GTACATTAGT | 1.01
135 | CGGCGAGTCT | 1.01
136 | TGTGGGGTTA | 1.01
137 | ATACGGACTC | 1.37
138 | ACCGGTGGCT | 1.01

Row | Sequence | switch fluorescence ratio
139 | ACTACTTTAT | 0.999
140 | GCATTATCGA | 1.02
141 | AGGCTCTGAC | 0.981
142 | AAATGTGGGC | 1.06
143 | TATGGGGACT | 1.01
144 | TCGAGGAGAA | 0.983
145 | AGAGTGTATT | 0.998
146 | TGGCAAATTC | 1
147 | TTTTACAACA | 1.13
148 | AAAGTCCTCG | 0.943
149 | ATATAATAAT | 1
150 | TTTCAGGCAC | 1.18
151 | TATTTAAATG | 1.03
152 | CCCACATGGT | 2.31
153 | AGCAGTTGGT | 1.02
154 | TTCTGCGGTT | 1.02
155 | GACCGGGTC | 0.997
156 | TCACATAGTG | 0.968
157 | AGCTCCAAGG | 1.02
